Test results from publication PMC7819943, “Rice protein-binding microarrays: a tool to detect cis-acting elements near promoter regions in rice”.
Some of the results follow.

target: T1, OsWOX13 (Oryza sativa, UniProt Q5QMM3 1-267); experiment: protein-binding microarray (RPBM); PBS, 2% BSA, 51.3 ng/ul salmon testes DNA, 50 uM zinc acetate, 200 nM TF, 25 C, 1 h; high values mean tight binding; conditions: protein: recombinant; tags: N-terminal polyhistidine and DsRed monomer fusion (pET32a); label: CyDye5-dUTP incorporated in the synthesized complementary strand; 3' TTTTT single-stranded linker to array surface; dsDNA, one strand shown
T1 sequence: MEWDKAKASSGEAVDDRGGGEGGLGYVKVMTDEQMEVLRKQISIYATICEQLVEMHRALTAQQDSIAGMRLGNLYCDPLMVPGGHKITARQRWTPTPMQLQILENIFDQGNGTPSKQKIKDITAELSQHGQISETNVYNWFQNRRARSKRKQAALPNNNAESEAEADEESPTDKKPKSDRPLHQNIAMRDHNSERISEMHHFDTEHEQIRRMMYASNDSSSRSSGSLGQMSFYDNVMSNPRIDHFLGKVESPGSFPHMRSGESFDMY
Procedure, shortened: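 Using Ni–NTA, transcription factors fused N-terminally to polyhistidine and DsRed were purified after expression in E. coli BL21-CodonPlus. These were incubated at 200 nM with a blocked, double-stranded custom Agilent array for 1 h at 25 °C in a buffer containing 50 µM zinc acetate, and the array was washed. The binding signal is per-feature fluorescence intensity (arbitrary units) on an Axon 4000B scanner.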

Sequence	binding signal
AAGAAGAATCTATCTATCTATCTATCTATCAATCTCTATACGGAGTCACCTAGTGCAG	3320 fluorescence intensity (a.u.)
TTTCTCTTGATTGCACCTGCATTTTCTTGGGGTCGTTTATCGGAGTCACCTAGTGCAG	23000 fluorescence intensity (a.u.)
GGAATGTAATTACACTACAACTTACATATAACTACAATATCGGAGTCACCTAGTGCAG	4800 fluorescence intensity (a.u.)
CGATCAATTTCCCATTTCAATCTCTCTCAAATTCCCATGTCGGAGTCACCTAGTGCAG	6020 fluorescence intensity (a.u.)
AAATTACATTTAGGTAATTGATGCACAACACTTAATTTTCCGGAGTCACCTAGTGCAG	6600 fluorescence intensity (a.u.)
TAACCAATCAGATTCAGCGGCGGCTTACTGTGTGTCCGTGCGGAGTCACCTAGTGCAG	3800 fluorescence intensity (a.u.)
TCAAAACAAACTGAAATTTGACCCGAAAATGTATGCGCGGCGGAGTCACCTAGTGCAG	4320 fluorescence intensity (a.u.)
TCTGACAGAGTTTTGATATGGATGATTTCTGTTAGTGGTTCGGAGTCACCTAGTGCAG	30600 fluorescence intensity (a.u.)
GGCAAAATAGACGTTTTCTTCTTTCTTTTCTTAACGGCCCCGGAGTCACCTAGTGCAG	3200 fluorescence intensity (a.u.)
CTAATAATAAAATAAATTGCAGATTCTGCCTGCAAACTATCGGAGTCACCTAGTGCAG	6570 fluorescence intensity (a.u.)
GACAAGTAATTCGATTTTGATAGCTTTCAGTTTACGTTCCCGGAGTCACCTAGTGCAG	4910 fluorescence intensity (a.u.)
AAGACATTAGACAACTTGACAAATTTTCTTCTCCATTTCGCGGAGTCACCTAGTGCAG	5770 fluorescence intensity (a.u.)
TCTCTTAATTAATATAGTGCCACATAAGATAAAAGTTCTACGGAGTCACCTAGTGCAG	10400 fluorescence intensity (a.u.)
AATTCAAGCTCATCACTGATTTGATAAGACATTAAGATAGCGGAGTCACCTAGTGCAG	4050 fluorescence intensity (a.u.)
AGAAGCAGGCAAACAATCAATCATCAGCAATTAACAGGTACGGAGTCACCTAGTGCAG	10600 fluorescence intensity (a.u.)
TGCAAATTTACCACTACTTTGAATCGTTATTGCAAAACTGCGGAGTCACCTAGTGCAG	3870 fluorescence intensity (a.u.)
TTCACGTCAAAATTAGAAATTTGGTTGAAATTGGAACGATCGGAGTCACCTAGTGCAG	4920 fluorescence intensity (a.u.)
ACTTGATAATACATTTACATGCAGCGTAATGATGCCAGTCCGGAGTCACCTAGTGCAG	5520 fluorescence intensity (a.u.)
GATGGACCAATTTGATTGTTGTTGGATTCTACGATGCATGCGGAGTCACCTAGTGCAG	9950 fluorescence intensity (a.u.)
AACTAGATTACATCACTTGTCGGGTGATACTTTACATGTTCGGAGTCACCTAGTGCAG	5770 fluorescence intensity (a.u.)
TTGTGATTGTCTATGTTGTAATGTGTAATTCTCAAAATAACGGAGTCACCTAGTGCAG	13800 fluorescence intensity (a.u.)

Sequence	binding signal
GATGTGACGTGATGTGATGGAAAGTTGGGAGTTGGGGAAACGGAGTCACCTAGTGCAG	5400 fluorescence intensity (a.u.)
TTTGATTGTTTCCATTTGCAATTTCTAAATACGAACCTGCCGGAGTCACCTAGTGCAG	57500 fluorescence intensity (a.u.)
TTAAACTTTAGATTGCATGTTGAACTTTAGAATTTAGTGGCGGAGTCACCTAGTGCAG	13100 fluorescence intensity (a.u.)
CATGAAATCATGGCCAATGATTTGATCTGCACGAACTGCCCGGAGTCACCTAGTGCAG	18700 fluorescence intensity (a.u.)
ATTCCTAAAATTATATGAATTTATGAGAAATTACGTAATGCGGAGTCACCTAGTGCAG	4300 fluorescence intensity (a.u.)
TAAATAATTGCCATTGCCATGCTGCCACGTGTCATGGGACCGGAGTCACCTAGTGCAG	25600 fluorescence intensity (a.u.)
GTGTTTGAAACTGACAAATTAAGTTGACGCACATAAAAGACGGAGTCACCTAGTGCAG	3300 fluorescence intensity (a.u.)
CCTCAATTAATTTTAGGAGATAGAGAAGATTTGACCAGATCGGAGTCACCTAGTGCAG	38200 fluorescence intensity (a.u.)
CTTGTAACAATTATGGTCACCTGAATAGAATTATGCAGTTCGGAGTCACCTAGTGCAG	3550 fluorescence intensity (a.u.)
GTGCTATCTGTGTGGGTGATTGATTCATTGGTCAACTCAACGGAGTCACCTAGTGCAG	27600 fluorescence intensity (a.u.)
TAATTAAACATGAATTTATATCAGTCAAAGTTTACACTAACGGAGTCACCTAGTGCAG	3510 fluorescence intensity (a.u.)
GCGTGACTGCGTGGAGCATCCAACGGTCCAAGATGGTTTGCGGAGTCACCTAGTGCAG	4250 fluorescence intensity (a.u.)
TTCAATCAAACTTCCAATTTTAGCTTGAACTACACACACCCGGAGTCACCTAGTGCAG	7520 fluorescence intensity (a.u.)
TGCTGAATTAATTGATCAGGTCAAGTCGTTAAAGCAGACACGGAGTCACCTAGTGCAG	31700 fluorescence intensity (a.u.)
AATACTCACTGGCTGATTATCACCCATCTTCTTCTGTAATCGGAGTCACCTAGTGCAG	3880 fluorescence intensity (a.u.)
GATGTTGATTGTTGGTGTGTAGAATAATGTCTGATATGAACGGAGTCACCTAGTGCAG	30100 fluorescence intensity (a.u.)
GTCGATTGTCTGGATTTGTGATGTGATAGAACGTCGGTATCGGAGTCACCTAGTGCAG	11100 fluorescence intensity (a.u.)
GACAATTGACACGATCTATCATCTATGGAGTTGGAGAAGCCGGAGTCACCTAGTGCAG	24800 fluorescence intensity (a.u.)
GACATGTAATTTCTTTTGACTATGAATCCTGGAGCCAAAACGGAGTCACCTAGTGCAG	5070 fluorescence intensity (a.u.)
CTTCTAATTTTGTTAATTGGGAAGACATCATAGAGTGGAACGGAGTCACCTAGTGCAG	65400 fluorescence intensity (a.u.)
AACAAACAGATTATGTGTTTTCAGTTCTTAAGTTTAACAACGGAGTCACCTAGTGCAG	5240 fluorescence intensity (a.u.)
